Assay results from the supplement of paper PMC4967469.
A lower IC50 marks a more sensitive line; a limit (>, <) means that the fit lies beyond the doses tested. The AUC spans the tested range (256-fold, ending at the top dose) of the same fit; the more sensitive the line, the further below 1. For part of these data: A top dose marked as inferred was calculated from the reported fits. For part of these data: An entry number marks a drug with two screens in the source, which often give different values.

Experiments:
Test in all cases: Viability of human cancer cell lines after 72 h of drug (GDSC screen)
MP470 = compound: S=C(NCc1ccc2c(c1)OCO2)N1CCN(c2ncnc3c2oc2ccccc23)CC1 [MP470]; settings: top dose 20 µM; top dose inferred
Protocol: (§1)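 Human cancer cell lines in 384-well plates, medium with 10% serum, drug for 72 h over a 256-fold dose range (nine 2-fold or five 4-fold steps up to the top dose). Adherent lines were fixed and stained with the nucleic acid dye Syto60, suspension lines read with resazurin; signal relative to control wells, capped at 0 and 100%. One two-parameter sigmoid per drug and line, fitted in a mixed model over all curves with the slope shared within a line.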

LFM-A13 = compound: C/C(O)=C(\C#N)C(=O)Nc1cc(Br)ccc1Br [LFM-A13]; settings: top dose 16 µM; top dose inferred
Protocol: as §1

AUY922 = compound: CCNC(=O)c1noc(-c2cc(C(C)C)c(O)cc2O)c1-c1ccc(CN2CCOCC2)cc1 [AUY922]; settings: top dose 0.256 µM; top dose inferred
Protocol: as §1

Bicalutamide = compound: CC(O)(CS(=O)(=O)c1ccc(F)cc1)C(=O)Nc1ccc(C#N)c(C(F)(F)F)c1 [Bicalutamide]; settings: top dose inferred
Protocol: as §1

TW-37 = compound: CC(C)c1ccccc1Cc1cc(C(=O)Nc2ccc(S(=O)(=O)c3ccccc3C(C)(C)C)cc2)c(O)c(O)c1O [TW-37]; settings: top dose 5 µM
Protocol: as §1

GNF-2 = compound: NC(=O)c1cccc(-c2cc(Nc3ccc(OC(F)(F)F)cc3)ncn2)c1 [GNF-2]; settings: top dose 1.28 µM; top dose inferred
Protocol: as §1

KIN001-270 = compound: Cc1ccc(Nc2cc(-c3cccc(N4C(=O)c5ccccc5C4=O)c3)ncn2)cc1NS(C)(=O)=O [KIN001-270]; settings: top dose 20 µM; top dose inferred
Protocol: as §1

T0901317 = compound: O=S(=O)(c1ccccc1)N(CC(F)(F)F)c1ccc(C(O)(C(F)(F)F)C(F)(F)F)cc1 [T0901317]; settings: top dose 10.24 µM; top dose inferred
Protocol: as §1

Gemcitabine = compound: Nc1ccn([C@@H]2O[C@H](CO)[C@@H](O)C2(F)F)c(=O)n1 [Gemcitabine]; settings: top dose 1.024 µM
Protocol: as §1

Nilotinib = compound: Cc1cn(-c2cc(NC(=O)c3ccc(C)c(Nc4nccc(-c5cccnc5)n4)c3)cc(C(F)(F)F)c2)cn1 [Nilotinib]; settings: top dose 2 µM
Protocol: as §1

[1] = top dose 1.024 µM, screen: GDSC drug entry 150
[2] = top dose 10 µM, screen: GDSC drug entry 1502

Cell Line	AUC (MP470)	IC50 (MP470)	AUC (LFM-A13)	IC50 (LFM-A13)	AUC (AUY922)	IC50 (AUY922)	AUC (Bicalutamide; [1])	IC50 (Bicalutamide; [1])	AUC (Bicalutamide; [2])	IC50 (Bicalutamide; [2])	AUC (TW-37)	IC50 (TW-37)	AUC (GNF-2)	IC50 (GNF-2)	AUC (KIN001-270)	IC50 (KIN001-270)	AUC (T0901317)	IC50 (T0901317)	AUC (Gemcitabine)	IC50 (Gemcitabine)	AUC (Nilotinib)	IC50 (Nilotinib)
HC-1 (hairy cell leukaemia, suspension)	0.915	> 20 µM	0.979	> 16 µM	0.57	0.0247 µM	0.986	> 1.02 µM	0.982	> 10 µM	0.846	3.42 µM	0.987	> 1.28 µM	0.957	> 20 µM	0.969	> 10.2 µM	0.208	0.00925 µM	0.955	> 2 µM
NB14 (neuroblastoma, adherent)	0.955	> 20 µM	0.964	> 16 µM	0.703	0.0574 µM	0.987	> 1.02 µM	0.937	> 10 µM	0.261	0.0682 µM	0.989	> 1.28 µM	0.95	> 20 µM	0.982	> 10.2 µM	0.501	0.0644 µM	0.983	> 2 µM
TE-15 (oesophagus, suspension)	0.879	> 20 µM	0.979	> 16 µM	0.375	0.00692 µM	0.984	> 1.02 µM	0.963	> 10 µM	0.64	0.805 µM	0.964	> 1.28 µM	0.941	> 20 µM	0.94	> 10.2 µM	0.07	< 0.004 µM	0.985	> 2 µM
JiyoyeP-2003 (Burkitt lymphoma, suspension)	0.931	> 20 µM	0.98	> 16 µM	0.566	0.0236 µM	0.99	> 1.02 µM	0.984	> 10 µM	0.549	0.417 µM	0.981	> 1.28 µM	0.953	> 20 µM	0.962	> 10.2 µM	0.313	0.0206 µM	0.991	> 2 µM
COR-L95 (small cell lung carcinoma, adherent)	0.864	> 20 µM	0.982	> 16 µM	0.803	0.151 µM	0.985	> 1.02 µM	0.985	> 10 µM	0.829	3.81 µM	0.986	> 1.28 µM	0.981	> 20 µM	0.987	> 10.2 µM	0.899	> 1.02 µM	0.987	> 2 µM
MLMA (hairy cell leukaemia, semi-adherent)	0.982	> 20 µM	0.977	> 16 µM	0.718	0.0667 µM	0.986	> 1.02 µM	0.982	> 10 µM	0.413	0.18 µM	0.986	> 1.28 µM	0.954	> 20 µM	0.985	> 10.2 µM	0.443	0.0446 µM	0.928	> 2 µM
KS-1 (glioma, adherent)	0.452	0.898 µM	0.924	> 16 µM	0.391	0.00744 µM	0.98	> 1.02 µM	0.968	> 10 µM	0.533	0.392 µM	0.973	> 1.28 µM	0.95	> 20 µM	0.98	> 10.2 µM	0.355	0.0229 µM	0.98	> 2 µM
SLVL (B-cell lymphoma, suspension)	0.91	> 20 µM	0.96	> 16 µM	0.497	0.0157 µM	0.98	> 1.02 µM	0.973	> 10 µM	0.761	1.87 µM	0.986	> 1.28 µM	0.945	> 20 µM	0.962	> 10.2 µM	0.19	0.00708 µM	0.976	> 2 µM
TK10 (kidney, adherent)	0.941	> 20 µM	0.933	> 16 µM	0.481	0.014 µM	0.981	> 1.02 µM	0.978	> 10 µM	0.573	0.518 µM	0.977	> 1.28 µM	0.942	> 20 µM	0.98	> 10.2 µM	0.367	0.0253 µM	0.975	> 2 µM
GR-ST (lymphoblastic leukaemia, suspension)	0.613	2.74 µM	0.966	> 16 µM	0.603	0.0325 µM	0.98	> 1.02 µM	0.952	> 10 µM	0.451	0.224 µM	0.972	> 1.28 µM	0.922	> 20 µM	0.916	> 10.2 µM	0.201	0.00666 µM	0.981	> 2 µM
ATN-1 (T-cell lymphoblastic leukaemia, suspension)	0.954	> 20 µM	0.984	> 16 µM	0.787	0.103 µM	0.984	> 1.02 µM	0.951	> 10 µM	0.619	0.65 µM	0.97	> 1.28 µM	0.982	> 20 µM	0.98	> 10.2 µM	0.124	0.00454 µM	0.955	> 2 µM
BB49-HNC (head and neck, adherent)	0.959	> 20 µM	0.932	> 16 µM	0.528	0.0197 µM	0.941	> 1.02 µM	0.95	> 10 µM	0.72	1.73 µM	0.919	> 1.28 µM	0.976	> 20 µM	0.973	> 10.2 µM	0.968	> 1.02 µM	0.978	> 2 µM
Mo-T (hairy cell leukaemia, suspension)	0.492	1.19 µM	0.988	> 16 µM	0.634	0.0377 µM	0.988	> 1.02 µM	0.977	> 10 µM	0.451	0.23 µM	0.985	> 1.28 µM	0.946	> 20 µM	0.949	> 10.2 µM	0.961	> 1.02 µM	0.939	> 2 µM
NCI-H82 (small cell lung carcinoma, suspension)	0.492	1.19 µM	0.983	> 16 µM	0.988	> 0.256 µM	0.987	> 1.02 µM	0.968	> 10 µM	0.545	0.411 µM	0.987	> 1.28 µM	0.981	> 20 µM	0.981	> 10.2 µM	0.799	0.462 µM	0.941	> 2 µM
OVCAR-4 (ovary, adherent)	0.883	> 20 µM	0.948	> 16 µM	0.566	0.0264 µM	0.976	> 1.02 µM	0.954	> 10 µM	0.592	0.634 µM	0.935	> 1.28 µM	0.951	> 20 µM	0.965	> 10.2 µM	0.662	0.225 µM	0.964	> 2 µM
KY821 (leukaemia, suspension)	0.902	> 20 µM	0.992	> 16 µM	0.729	0.0645 µM	0.992	> 1.02 µM	0.991	> 10 µM	0.893	4.6 µM	0.992	> 1.28 µM	0.99	> 20 µM	0.987	> 10.2 µM	0.944	> 1.02 µM	0.991	> 2 µM
MN-60 (B-cell leukaemia, suspension)	0.854	16.8 µM	0.97	> 16 µM	0.786	0.115 µM	0.987	> 1.02 µM	0.987	> 10 µM	0.759	1.81 µM	0.988	> 1.28 µM	0.964	> 20 µM	0.963	> 10.2 µM	0.913	> 1.02 µM	0.987	> 2 µM
KGN (ovary, adherent)	0.836	17.5 µM	0.944	> 16 µM	0.393	0.00762 µM	0.978	> 1.02 µM	0.964	> 10 µM	0.552	0.448 µM	0.979	> 1.28 µM	0.92	> 20 µM	0.981	> 10.2 µM	0.04	< 0.004 µM	0.981	> 2 µM
NCI-H526 (small cell lung carcinoma, suspension)	0.898	> 20 µM	0.962	> 16 µM	0.806	0.124 µM	0.989	> 1.02 µM	0.988	> 10 µM	0.59	0.543 µM	0.981	> 1.28 µM	0.959	> 20 µM	0.961	> 10.2 µM	0.557	0.0906 µM	0.981	> 2 µM
EVSA-T (breast, adherent)	0.929	> 20 µM	0.99	> 16 µM	0.818	0.119 µM	0.991	> 1.02 µM	0.991	> 10 µM	0.508	0.328 µM	0.991	> 1.28 µM	0.954	> 20 µM	0.973	> 10.2 µM	0.961	> 1.02 µM	0.991	> 2 µM
HL-60 (acute myeloid leukaemia, suspension)	0.858	13.8 µM	0.989	> 16 µM	0.493	0.0154 µM	0.987	> 1.02 µM	0.986	> 10 µM	0.671	0.882 µM	0.983	> 1.28 µM	0.981	> 20 µM	0.942	> 10.2 µM	0.243	0.0128 µM	0.941	> 2 µM
